According to patent EP4763863A1 (Carbiogene Therapeutics Co., Ltd., dated 2026):

Target: T1, BCMA (CD269, TNFRSF17) expressed on cells (human, UniProt Q02223 1-184)
T1 construct: whole, on cells; also called BCMA antigen molecule expressed on tumor cells; K562-BCMA cells
T1 sequence (looked up): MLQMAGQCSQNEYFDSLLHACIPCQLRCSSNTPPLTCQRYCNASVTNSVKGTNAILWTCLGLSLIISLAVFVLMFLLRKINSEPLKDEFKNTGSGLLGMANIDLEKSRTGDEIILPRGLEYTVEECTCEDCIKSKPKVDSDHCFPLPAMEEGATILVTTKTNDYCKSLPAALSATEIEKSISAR
Assay: flow cytometry (MFI) of FITC-BCMA-VHH-54-hFc titrated on K562-BCMA cells; KD from a double-reciprocal linear regression

B1: FITC-BCMA-VHH-54-hFc (Fc fusion)
chain: QLQLVESGGGLVQPGGSLKLSCAASGFTFKDYAMNWYRQAPGKEREWVALISSDGGTTEYEQSVKGRFTISRDNAKNTVYLQMNSVKPEDTAVYRCNKFGAGSYNYWGQGTLVTVSS[human IgG1 Fc with changes not spelt out]
modifications: FITC label (Pierce NHS-Fluorescein Antibody Labeling Kit); labelled residues not stated
notes: Anti-BCMA alpaca single-domain antibody fused at its C-terminus to human IgG1 Fc; Expressed in HEK293 cells, purified on Protein A and labelled with FITC for flow cytometry; also called FITC-labeled BCMA-VHH-54 antibody; BCMA-FITC
B1 was tested, and the Kd was 26.9 nM.
